Results as given in PubChem BioAssay AID1865 (National Center for Advancing Translational Sciences (NCATS), 2009).
Out of some 280,000 compounds screened, about 540 (0.19%) were called active. Inconclusive means that the source gave no clear call. Such entries were picked first, then a sample of the others. Calls follow the shape of the dose curve; as a rule, active = well fitted activation curve with a large enough effect; inconclusive = small, poorly fitted or top-dose-only effect; inactive = flat fitted curve, though single readings scatter. Potencies of inconclusive entries are doubtful fits and often do not repeat.

Experiment: Quantitative High-Throughput Screen for Regulators of Epigenetic Control; also: nearly all actives have a fitted effect of over 60% in size; as to GFP activation: % of control where 0% means no effect
Settings: murine LDR cells, GFP reporter derepression, 30 h; GFP activation: at 53.9 µM (top of the series)
Outline: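 In this reporter-derepression format, murine cells bearing a silenced integrated CMV-GFP locus incubate with test compound (30 h, 37 C), then are washed and imaged; fluorescent objects of 20–120 um count as induced cells.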
Potency is read from the fitted curve at half-maximal effect; tags tell the direction and shape of the fitted curve.

SMILES | GFP activation | Potency
CCc1ccc(NC(=O)CSc2nc3nccnc3c(=O)n2CCc2c[nH]c3ccccc23)cc1 | inactive: 0% | –
OCc1ccc(-c2nn(Cc3ccccc3)c3ccccc23)o1 | – | inconclusive: 35.5 µM [activator, single point]
CCc1c(C)sc(NC(=O)OC)c1C(=O)N1CCCCC1 | inactive: -0.346% | –
CC(=O)NC(=S)Nc1cc(C(F)(F)F)ccc1N1CCOCC1 | inactive: -2.01% | –
COc1ccc2nc(NC(=O)c3nc(SCc4ccc(F)cc4)ncc3Cl)sc2c1 | – | inconclusive: 6.31 µM [activator, single point]
CCOC(=O)c1c(NC(=O)c2cc(-c3ccc(Cl)s3)nc3ccccc23)sc(C(N)=O)c1C | – | inconclusive: 6.31 µM [activator, full curve]
COc1ccc(N(CC(=O)NCCc2cccc(C)c2)S(=O)(=O)c2c(C)nn(C)c2C)cc1 | inactive: 0.451% | –
O=C(Nc1nc2ccc(F)cc2s1)c1nc(S(=O)(=O)Cc2ccccc2)ncc1Cl | – | inconclusive: 6.31 µM [activator, single point]
O=C(Oc1c(CN2CCOCC2)cc(Cl)c2cccnc12)c1ccccc1F | – | inconclusive: 7.94 µM [activator, single point]
Cc1cc(C)c2sc(NNC(=O)c3ccc(S(=O)(=O)N4CCc5ccccc5C4)cc3)nc2c1 | – | inconclusive: 22.4 µM [activator, single point]
CC(C)c1ccc(C2N=C(N)Nc3nc4ccccc4n32)cc1 (centres undefined) | inactive: 0% | –
COc1ccc(NC(=O)CSCc2cnn(-c3ccccc3)c2-n2cccc2)cc1 | – | inconclusive: 31.6 µM [activator, single point]
Cc1ccc(-c2nc3ccccc3o2)cc1NC(=S)NC(=O)c1cc2ccccc2o1 | inactive: -0.99% | –
Cc1ccc(C)c(NC(=O)c2cnn3ccccc23)c1 | inactive: 0.781% | –
CCOC(=O)c1ccc(NC(=O)c2ccc3c(c2)NC(=O)c2ccccc2S3)cc1 | – | inconclusive: 28.2 µM [activator, single point]
CCOC(=O)c1c(-c2ccc(F)cc2)csc1NC(=O)C1CCCO1 (centres undefined) | inactive: 6.29% | –
O=c1[nH][nH]cc1C=Nc1ccccc1O | – | inconclusive: 35.5 µM [activator, single point]
COc1ccc2o/c(=N/NC(=O)c3cccs3)c(C(N)=O)cc2c1 | – | active: 17.8 µM
Cc1ccc(-n2c(O)c(C=Nc3ccc4c(c3)OCO4)c3ccccc3c2=O)cc1C | – | inconclusive: 7.94 µM [activator, partial curve]
Cc1nc2nc(SCC(=O)NCCc3ccc(Cl)cc3)nn2c(C)c1Cc1ccccc1 | inactive: -2.32% | –
COc1ccc(C(=O)Nc2ccccc2C(=O)NC(Cc2ccc(O)cc2)C(=O)NNC(=O)c2ccccc2Cl)cc1 (centres undefined) | – | inconclusive: 31.6 µM [activator, single point]
CC(=O)Nc1ccc(S(=O)(=O)N2CCC(Oc3ccc(-n4cnnn4)cc3)CC2)cc1 | – | inconclusive: 6.31 µM [activator, single point]

SMILES | GFP activation | Potency
Clc1ccc2c(N/N=C/c3cccnc3)ccnc2c1 | inactive: 2.25% | –
Cn1cc(-c2nnc(-c3ccccc3)o2)c2ccccc21 | inactive: 2.89% | –
C#CCn1c(=NC(=O)c2ccccc2[N+](=O)[O-])sc2cc(S(C)(=O)=O)ccc21 | – | inconclusive: 7.94 µM [activator, partial curve]
CCCCN1C(=O)C2(NNc3ccccc3O2)c2ccccc21 (centres undefined) | – | inconclusive: 22.4 µM [activator, single point]
FC(F)Sc1ccc(NC(=S)NC2CCCC2)cc1 | inactive: -2.67% | –
CCSc1nnc(CNC(=O)c2ccccc2F)n1-c1ccccc1OC | – | inconclusive: 6.31 µM [activator, single point]
O=S(=O)([O-])CCC[n+]1c(/C=C\Nc2ccccc2)oc2ccc(-c3ccccc3)cc21 | – | inconclusive: 35.5 µM [activator, single point]
COc1ccc(N=C2S/C(=C\c3ccc(N4CCOCC4)o3)C(=O)N2CCc2c[nH]c3ccccc23)cc1 | – | inconclusive: 5.01 µM [activator, partial curve]
Cc1ccc(-c2nc(-c3cc4cccc(OCc5cccc(C)c5)c4oc3=O)no2)cc1 | – | inconclusive: 31.6 µM [activator, single point]
CC(C)n1c2ccccc2c2nnc(SCC(=O)OCN3C(=O)c4ccccc4C3=O)nc21 | – | inconclusive: 3.55 µM [activator, single point]
O=C1C=CCC(/C=C/c2ccccc2)O1 (centres undefined) | inactive: 5.97% | –
O=C(NCc1cccc(Cl)c1)C(=O)Nc1ccc2nc3n(c(=O)c2c1)CCCCC3 | – | inconclusive: 31.6 µM [activator, single point]
C=Cc1ccc(CN2C(=O)N(c3cccc(Cl)c3)S(=O)(=O)c3ccccc32)cc1 | inactive: -0.465% | –
Cc1ccc2c(=O)c(C(=O)c3cccc(Cl)c3)cn(CC(=O)NCc3ccc(F)cc3)c2n1 | – | inconclusive: 35.5 µM [activator, single point]
Cc1nn(C(C)C)c(C)c1[C@@H]1C[C@H]2CN(Cc3cccc(Cl)c3)C(=O)[C@]23CCCN13 | – | inconclusive: 3.55 µM [activator, single point]
CC1=CC(C)(C)Nc2ccc(OC(=O)c3ccco3)cc21 | – | inconclusive: 31.6 µM [activator, single point]
COc1ccccc1CNS(=O)(=O)c1cc2c3c(c1)CCN3C(=O)CC2 | inactive: 1.64% | –
CC(=O)C(C(C)=O)c1c(Cl)c(O)c(O)c2c(C(=O)c3ccccc3)coc12 | – | inconclusive: 28.2 µM [activator, single point]
Oc1ccc(CN2CCCc3ccccc32)c2cccnc12 | – | inconclusive: 31.6 µM [activator, single point]
O=C(/C=C/Sc1ccccc1)c1ccccc1 | – | inconclusive: 3.55 µM [activator, single point]
Cc1csc(=Nc2c(C)n(C)n(-c3ccccc3)c2=O)n1Cc1ccccc1 | – | inconclusive: 4.47 µM [activator, single point]
COC(=O)c1cccc(NC(=O)CSc2nc3cccnc3n2C)c1 | – | inconclusive: 6.31 µM [activator, single point]
